Assay results reported in the supplement of paper PMC9446081.
Screen size: about 39,000 compounds; about 220 (0.56%) showed activity. The list shows a part of the results.

tested on: Escherichia coli K-12 BW25113; experiment: relative growth (OD600 normalised to plate interquartile mean) (fraction); higher = less growth inhibition, active = 0.2 or less; settings: 50 µM; LB; incubation time: overnight (16-24 h)
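Note: static incubation at 37 °C against the wild-type strain, values averaged over two biological replicates.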

Row | Compound | relative growth
1 | COC(=O)C1=C2CC[C@@H](COC(=O)NCCCCCC(=O)NO)NC(=O)N[C@H](Cc3ccccc3)c3cn(nn3)C[C@H](Cc3ccccc3)NC(=O)c3oc(c(C(=O)OC)c3C(=O)OC)CC[C@@H](COC(=O)NCCCCCC(=O)NO)NC(=O)N[C@H](Cc3ccccc3)c3cn(nn3)C[C@H](Cc3ccccc3)NC(=O)C(=C1C(=O)OC)O2 | inactive: 0.992
2 | C[C@H](CO)N1C[C@H](C)[C@@H](CN(C)Cc2ccc(Oc3ccccc3)cc2)Oc2ccc(NC(=O)Nc3ccc4c(c3)OCO4)cc2CC1=O | inactive: 0.988
3 | C[C@@H]1CN([C@@H](C)CO)C(=O)c2cc(NS(=O)(=O)c3cn(C)cn3)ccc2O[C@H]1CN(C)CC1CC1 | inactive: 0.993
4 | CC(C)NC(=O)Nc1ccc2c(c1)C(=O)N([C@@H](C)CO)C[C@H](C)[C@H](CN(C)Cc1ccccc1)OCCCC[C@H](C)O2 | inactive: 0.994
5 | CC1(C)CCC2(C)CCC3(C)C(=CCC4C5(C)CCC(O)C(C)(C)C5CCC43C)C2C1 (stereo not drawn) [beta-AMYRIN] | inactive: 1.13
6 | COC(=O)C1=C2CC[C@H](CO)NC(=O)N[C@H](Cc3ccccc3)C(=O)NCc3cn(nn3)C[C@H](Cc3ccccc3)NC(=O)c3oc(c(C(=O)OC)c3C(=O)OC)CC[C@H](CO)NC(=O)N[C@H](Cc3ccccc3)C(=O)NCc3cn(nn3)C[C@H](Cc3ccccc3)NC(=O)C(=C1C(=O)OC)O2 | inactive: 1.01
7 | O=c1/c(=C\c2ccc(F)cc2)sc2n1CCN=2 | inactive: 0.929
8 | C[C@@H]1CCCCO[C@@H](CN(C)C(=O)NC2CCCCC2)[C@H](C)CN([C@H](C)CO)C(=O)c2cc(NC(=O)Nc3cccc4ccccc34)ccc2O1 | inactive: 0.994
9 | O=C(C[C@@H]1C[C@@H]2c3cc(NC(=O)Cc4ccncc4)ccc3O[C@@H]2[C@@H](CO)O1)NCc1cccc(F)c1 | inactive: 0.993
10 | C[C@H]1CCCCO[C@H](CN(C)Cc2ccc(C(F)(F)F)cc2)[C@@H](C)CN([C@@H](C)CO)C(=O)c2cc(NC(=O)NC3CCCCC3)ccc2O1 | inactive: 0.981
11 | C[C@@H]1CN([C@H](C)CO)C(=O)c2cc(C#CCC3CCCC3)cnc2O[C@H]1CN(C)C(=O)c1cnccn1 | inactive: 1.04
12 | Nc1nnc(C(=O)c2ccccc2N)s1 | inactive: 0.951
13 | COc1ccc(NC(=O)Nc2ccc3c(c2)C(=O)N([C@@H](C)CO)C[C@H](C)[C@@H](CN(C)Cc2ccncc2)OCCCC[C@H](C)O3)cc1 | inactive: 1.01
14 | COc1ccc2c3c([nH]c2c1)[C@@H](CO)N(C[C@]13CN(CCc2ccccc2)C1)C(=O)CN1CCOCC1 | inactive: 0.982
15 | O=C(C[C@@H]1CC[C@@H]2[C@H](COC[C@H](O)CN2Cc2ccccc2F)O1)N[C@@H]1CCN(Cc2ccccc2)C1 | inactive: 0.953
16 | COCCN1CCNCC1 | inactive: 0.963
17 | N#C[C@@H]1[C@H](c2ccc(C#Cc3ccccn3)cc2)[C@@H](CO)N1C(=O)CN1CCOCC1 | inactive: 1.03
18 | Cc1ccc(S(=O)(=O)Nc2ccc3c(c2)C(=O)N([C@H](C)CO)C[C@H](C)[C@@H](CN(C)C(=O)Cc2ccccc2)OCCCC[C@@H](C)O3)cc1 | inactive: 1.05
19 | O=C(CCCCC(=O)N/N=C/[C@H](O)[C@@H](O)[C@H](O)[C@H](O)CO[C@H]1O[C@H](CO)[C@H](O)[C@H](O)[C@H]1O)NO | inactive: 1.02

Row | Compound | relative growth
20 | C[C@H]1CCCCO[C@H](CN(C)C(=O)Nc2cccc3ccccc23)[C@@H](C)CN([C@@H](C)CO)C(=O)c2cc(NC(=O)Nc3cccc4ccccc34)ccc2O1 | inactive: 1.04
21 | COc1ccc(C#Cc2ccc3c(c2)[C@]2(C(=O)N3)[C@H](c3ccc(O)cc3)N3[C@H](c4ccccc4)[C@H](c4ccccc4)OC(=O)[C@H]3[C@@H]2C(=O)N2CCc3cc(OC)c(OC)cc3C2)cc1 | inactive: 1.03
22 | CCC(NC(C)C)C(O)c1ccc(O)c(O)c1.CS(=O)(=O)O (configuration not stated) | inactive: 1.04
23 | COc1ccc(S(=O)(=O)Nc2cccc3c2O[C@@H](CN(C)C(=O)NC(C)C)[C@@H](C)CN([C@@H](C)CO)C3=O)cc1 | inactive: 0.988
24 | COc1cccc(NC(=O)N2C[C@H](O)COC[C@@H]3O[C@@H](CC(=O)NCc4ccccc4F)CC[C@H]32)c1 | inactive: 0.983
25 | C[C@@H]1CN([C@H](C)CO)C(=O)c2cc(C#CC3(O)CCCC3)cnc2O[C@@H]1CN(C)C(=O)Nc1ccc2c(c1)OCO2 | inactive: 0.978
26 | Cc1noc(C)c1NC(=O)Nc1ccc2c(c1)C(=O)N([C@@H](C)CO)C[C@H](C)[C@@H](CN(C)S(=O)(=O)c1ccccc1)OCCCC[C@@H](C)O2 | inactive: 0.989
27 | COCCN1C[C@H]2[C@@H](OC)CCN(S(=O)(=O)c3cn(C)cn3)[C@H]2C1 | inactive: 1.03
28 | C[C@H](CO)N1C[C@H](C)[C@@H](CN(C)CC2CCCCC2)Oc2ccc(NC(=O)CCN3CCOCC3)cc2C1=O | inactive: 0.981
29 | CN(C)C(=O)CN1CCC[C@]2(CCN(S(=O)(=O)c3cn(C)cn3)C2)C1 | inactive: 1.01
30 | C[C@H](CO)N1C[C@H](C)[C@H](CN(C)S(=O)(=O)c2cccs2)Oc2c(NS(=O)(=O)c3ccc(F)cc3)cccc2C1=O | inactive: 1.04
31 | C[C@@H]1CN([C@@H](C)CO)C(=O)c2cc(NS(=O)(=O)c3cn(C)cn3)ccc2O[C@@H]1CN(C)S(C)(=O)=O | inactive: 0.991
32 | COc1ccc(CN(C)C[C@@H]2Oc3ccc(NC(=O)Nc4ccc(C(F)(F)F)cc4)cc3C(=O)N([C@@H](C)CO)C[C@@H]2C)cc1 | inactive: 0.998
33 | Cc1ccc(S(=O)(=O)Nc2cccc3c2O[C@@H](CN(C)S(=O)(=O)c2ccc(F)cc2)[C@@H](C)CN([C@@H](C)CO)C3=O)cc1 | inactive: 1
34 | C[C@@H]1CN([C@@H](C)CO)C(=O)Cc2cc(NC(=O)c3ccncc3)ccc2O[C@@H]1CN(C)Cc1ccncc1 | inactive: 0.996
35 | COc1cccc(-c2ccc3c(c2)O[C@@H](CN(C)C(=O)C2CCC2)[C@H](C)CN([C@H](C)CO)S3(=O)=O)c1 | inactive: 0.999
36 | CC(=O)N1CCc2n[nH]c(C(=O)N3CCOCC3)c2C1 | inactive: 0.997
37 | C[C@@H]1CN([C@H](C)CO)C(=O)c2cc(NC(=O)CCCN(C)C)ccc2O[C@@H](C)CCCCO[C@@H]1CN(C)S(=O)(=O)c1cn(C)cn1 | inactive: 0.975
38 | C[C@@H]1CN([C@@H](C)CO)S(=O)(=O)c2ccc(Br)cc2O[C@@H]1CN(C)C(=O)C1CCCCC1 | inactive: 1

Row | Compound | relative growth
39 | Cc1ccc(S(=O)(=O)Nc2ccc3c(c2)C(=O)N([C@H](C)CO)C[C@H](C)[C@H](CN(C)S(=O)(=O)c2cn(C)cn2)O3)cc1 | inactive: 1.01
40 | CCCCC(CC)COC(=O)CC(C(=O)OCC(CC)CCCC)S(=O)(=O)[O-].[Na+] (configuration not stated) | inactive: 1.02
41 | C[C@@H]1CN([C@H](C)CO)C(=O)c2cccc(NC(=O)c3ccc(-c4nccs4)cc3)c2O[C@@H]1CN(C)S(C)(=O)=O | inactive: 1.01
42 | COC[C@H]1CCCNC1 | inactive: 0.976
43 | C/C=C/c1ccc2c(c1)O[C@H](CN(C)C(=O)c1ccc3c(c1)OCO3)[C@@H](C)CN([C@H](C)CO)S2(=O)=O | inactive: 1.04
44 | Cc1noc(C)c1NC(=O)N(C)C[C@@H]1OCCCC[C@@H](C)Oc2ccc(NC(=O)C3CCCCC3)cc2C(=O)N([C@@H](C)CO)C[C@H]1C | inactive: 0.993
45 | C[C@H](CO)N1C[C@H](C)[C@H](CN(C)Cc2cccc(C(F)(F)F)c2)Oc2ncc(/C=C/c3ccccc3)cc2C1=O | inactive: 1.04
46 | C[C@H](CO)N1C[C@H](C)[C@H](CN(C)Cc2ccccc2)Oc2ccc(NC(=O)CCCCCC(=O)Nc3ccccc3N)cc2CC1=O | inactive: 0.956
47 | C[C@@H]1CN([C@H](C)CO)C(=O)Cc2cc(NC(=O)CCC(F)(F)F)ccc2O[C@H]1CN(C)Cc1ccc(Cl)c(Cl)c1 | inactive: 0.99
48 | OCCN1CCN(c2ncnc3c2ncn3[C@H]2CN(Cc3cccnc3)C[C@@H](CO)O2)CC1 | inactive: 0.99
49 | C[C@@H]1CN([C@H](C)CO)C(=O)Cc2cc(NC(=O)Cn3cnnn3)ccc2O[C@@H]1CN(C)S(=O)(=O)c1cn(C)cn1 | inactive: 0.993
50 | C[C@H]1CN([C@@H](C)CO)C(=O)c2cccc(NC(=O)c3ccc(-c4nccs4)cc3)c2O[C@@H]1CN(C)Cc1ccc2c(c1)OCO2 | inactive: 1.03
51 | Cc1ccc(S(=O)(=O)Nc2ccc3c(c2)C(=O)N([C@H](C)CO)C[C@H](C)[C@H](CN(C)Cc2ccc(C(F)(F)F)cc2)OCCCC[C@@H](C)O3)cc1 | inactive: 1.06
52 | N#C[C@@H]1C[C@@H]2C[C@@H]2N1C(=O)[C@@H](N)[C@@]12C[C@@H]3C[C@@H](C[C@@](O)(C3)C1)C2 | inactive: 0.943
53 | C[C@@H]1CCCCO[C@H](CN(C)S(=O)(=O)c2cn(C)cn2)[C@@H](C)CN([C@H](C)CO)C(=O)c2cc(N(C)C)ccc2O1 | inactive: 0.992
54 | Cc1noc(C)c1NC(=O)Nc1ccc2c(c1)C(=O)N([C@@H](C)CO)C[C@@H](C)[C@@H](CN(C)CC1CC1)OCCCC[C@@H](C)O2 | inactive: 0.983
55 | Nc1nc(=O)c2c([nH]1)CN(C(=O)[C@H]1CCOC1)CC2 | inactive: 0.99
56 | COCC(=O)Nc1ccc2c(c1)C(=O)N(C)C[C@@H](OC)[C@@H](C)CN(Cc1ccccc1OC)[C@@H](C)CO2 | inactive: 1
57 | C[C@@H]1CCCCO[C@@H](CN(C)CC2CCCCC2)[C@@H](C)CN([C@H](C)CO)C(=O)c2cc(NC(=O)Cc3ccccc3)ccc2O1 | inactive: 1.01
